# Test results reported in the supplement of paper PMC3334620.
# The full ranking holds about 33,000 sequences; the median of “E-score (-0.5 to 0.5)” is about -0.053, and the highest 2% start at about 0.37. The list shows a part of the results.
# Biological target: Hap1 (UniProt P0CE41)
# Test: PBM E-score (8-mer binding enrichment) (E-score (-0.5 to 0.5)); higher = stronger / more preferred TF binding; most listed sequences are background and not binding sites
# Conditions: protein concentration: 200 nM; construct: GST-DNA-binding domain
# Procedure, shortened: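 PURExpress in vitro transcription/translation supplied GST-tagged yeast transcription factors, either full-length or DNA-binding domain. Applied at about 100-200 nM to universal all-10-mer Agilent arrays double-stranded by primer extension, the bound protein was detected with fluorescent anti-GST. E-scores, modified Wilcoxon-Mann-Whitney statistics, were given by the Universal PBM Analysis Suite to ungapped eight-base words pooled with their reverse complements after masliner normalisation.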
# Chain of UniProt P0CE41 (P0CE41 whole entry): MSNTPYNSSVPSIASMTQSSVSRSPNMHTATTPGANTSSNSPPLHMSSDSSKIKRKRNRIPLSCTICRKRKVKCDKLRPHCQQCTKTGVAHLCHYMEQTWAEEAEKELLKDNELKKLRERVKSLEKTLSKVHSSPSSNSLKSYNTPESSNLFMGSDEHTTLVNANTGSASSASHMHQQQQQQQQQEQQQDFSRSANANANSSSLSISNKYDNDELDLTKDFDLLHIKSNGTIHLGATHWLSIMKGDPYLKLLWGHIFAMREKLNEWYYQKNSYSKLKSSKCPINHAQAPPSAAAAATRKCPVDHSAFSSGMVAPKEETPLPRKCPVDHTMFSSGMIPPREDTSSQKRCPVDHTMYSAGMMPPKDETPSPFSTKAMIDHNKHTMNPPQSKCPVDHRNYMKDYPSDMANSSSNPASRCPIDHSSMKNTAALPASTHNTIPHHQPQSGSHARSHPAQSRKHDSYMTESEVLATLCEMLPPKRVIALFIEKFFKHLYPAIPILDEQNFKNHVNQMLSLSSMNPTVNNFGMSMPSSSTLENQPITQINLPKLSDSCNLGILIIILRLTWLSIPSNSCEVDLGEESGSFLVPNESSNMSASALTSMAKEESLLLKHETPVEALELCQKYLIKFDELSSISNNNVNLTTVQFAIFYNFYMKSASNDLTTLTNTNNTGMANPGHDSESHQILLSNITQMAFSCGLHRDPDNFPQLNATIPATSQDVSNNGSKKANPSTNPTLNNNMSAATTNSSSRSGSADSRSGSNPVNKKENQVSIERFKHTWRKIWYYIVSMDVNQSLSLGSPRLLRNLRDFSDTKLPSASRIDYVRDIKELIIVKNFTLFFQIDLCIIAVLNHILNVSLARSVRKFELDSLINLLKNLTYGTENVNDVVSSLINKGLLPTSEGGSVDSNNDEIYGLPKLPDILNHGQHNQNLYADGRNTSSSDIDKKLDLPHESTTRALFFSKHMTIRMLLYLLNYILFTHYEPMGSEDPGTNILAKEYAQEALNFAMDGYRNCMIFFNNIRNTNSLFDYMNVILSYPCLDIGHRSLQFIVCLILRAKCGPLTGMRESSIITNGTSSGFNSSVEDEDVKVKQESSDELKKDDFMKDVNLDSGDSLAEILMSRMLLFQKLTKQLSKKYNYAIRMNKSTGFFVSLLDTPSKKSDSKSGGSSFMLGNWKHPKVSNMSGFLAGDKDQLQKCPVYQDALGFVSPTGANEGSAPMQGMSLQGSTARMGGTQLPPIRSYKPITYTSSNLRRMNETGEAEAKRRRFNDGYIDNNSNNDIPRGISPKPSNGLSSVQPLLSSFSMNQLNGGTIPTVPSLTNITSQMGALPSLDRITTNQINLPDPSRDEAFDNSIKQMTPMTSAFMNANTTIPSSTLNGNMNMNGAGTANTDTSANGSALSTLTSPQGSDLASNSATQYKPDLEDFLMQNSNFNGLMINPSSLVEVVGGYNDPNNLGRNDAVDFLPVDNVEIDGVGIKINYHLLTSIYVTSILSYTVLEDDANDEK
row,Sequence,PBM E-score
1,AGCCCGTA,0.0737
2,AGAGCTTG,-0.334
3,GTACGATA,-0.189
4,AACGTTTA,-0.0796
5,GCCACTCC,0.0842
6,ACGGAATA,0.236
7,ACGCCGGA,0.381
8,CCCGTCGC,0.151
9,AAACACCC,0.154
10,CAAAATTA,-0.0607
11,CCCCAAGG,-0.22
12,CTGCTTCA,-0.303
13,CCAACTGA,-0.324
14,CGTCATAA,-0.0381
15,AAACATGT,0.0406
16,AAATCCAC,0.0573
17,GTTGCACA,-0.32
18,GGGACAGA,-0.0679
19,GATTACAA,0.103
20,ATTGGTCG,-0.0334
21,CGCGACGC,0.0259
22,TCAAGCGA,0.0133
23,CAAGACAC,-0.151
24,CCGGCGCA,0.294
25,CGTACTCA,-0.0902

row,Sequence,PBM E-score
1,GGCTTGAC,-0.117
2,ACAATGAA,-0.165
3,CGCTGTGA,-0.17
4,AGCCGGTA,0.414
5,CCCCCCAG,-0.32
6,AGAGCTCA,-0.191
7,ACCTCATA,-0.0658
8,ATGTGTAG,-0.0534
9,CTCGTGTA,-0.0874
10,GGAGGTAA,0.258
11,GCGATCGC,0.178
12,CAGGTGAC,-0.175
13,CGGTCCTC,0.216
14,CGAAACTA,0.0773
15,GGTCATGA,-0.0633
16,AGTGCAAT,-0.242
17,CCTCGCGC,0.0438
18,CTCATAAA,-0.0862
19,ATACCTGA,-0.0737
20,CCTAGACA,-0.188
21,CGATTTGC,0.0952
22,ATCTAGAG,-0.0788
23,AGGCCCCG,-0.00755
24,ATCTATGA,-0.203
25,ACACGCCG,0.244

row,Sequence,PBM E-score
1,GTGCCCGA,0.161
2,AAGTACTG,-0.0833
3,AAACACAA,-0.169
4,AGACGCGA,0.0238
5,CTTGCGTA,-0.117
6,ACATCCCG,0.302
7,CGGAGGAC,0.325
8,AACGGGTA,0.0822
9,AAAAGTAG,-0.174
10,CACCGACA,0.226
11,AGAGTGAG,-0.132
12,ACTTGTCA,0.0911
13,AGCAAGAC,-0.0948
14,ATTAATTG,-0.054
15,ACGTTCCC,-0.101
16,CTGGACAG,-0.13
17,CCAATAGC,-0.0632
18,CACACCTC,0.0394
19,ATGGGAAG,-0.253
20,AGAATCTA,-0.142
21,AACTTGTG,-0.0262
22,CGTCCAAA,0.0813
23,ATTTTAGG,-0.0974
24,AAACGATA,-0.0324
25,CTTGCAAG,0.103

row,Sequence,PBM E-score
1,ATAGCGTA,0.0245
2,ATATGTTA,-0.155
3,TACCCTGA,-0.199
4,CTGACGAC,-0.151
5,ACAGCATC,-0.0955
6,AATGAGGA,-0.199
7,GATACAAA,0.0995
8,AAAGACGT,0.0653
9,CATGGTAG,-0.279
10,CAGCGGGG,0.0523
11,GTTTCCTA,-0.156
12,ACAGCAAC,-0.0788
13,ATCCTAAG,-0.176
14,AAAACGGA,0.208
15,CGTATCAC,-0.0289
16,CATTGTAC,-0.164
17,TTCCAGAA,-0.0714
18,CTTACCCA,-0.113
19,CTGCAATA,-0.0479
20,GAGATACA,0.141
21,AGGATCAG,-0.217
22,ACTTCAGC,-0.209
23,TGTGACAA,-0.177
24,GGATTACC,0.231
25,GATAGGAA,0.0453

row,Sequence,PBM E-score
1,AAGCGTGG,-0.0777
2,AGAACGCT,-0.216
3,GACACGGA,0.233
4,CCAATACG,-0.111
5,AAGAAATT,0.0979
6,GACCTACA,-0.135
7,GTACATGA,-0.307
8,GAGGGTCA,-0.209
9,CTGGCATA,-0.0878
10,TCTAGTCA,-0.174
11,CACCACGC,-0.201
12,CATAAGCC,0.0632
13,CAACGAGG,-0.16
14,CAACGAGA,-0.0854
15,CCGCGGTA,0.303
16,GCTCTTAC,0.0248
17,TGCTCAAA,-0.145
18,AGATTCAA,-0.0472
19,CAATATTG,-0.318
20,AATTGTCA,-0.227
21,CGGGGCCC,0.258
22,TAGACAGA,-0.17
23,ACCGATTG,0.0789
24,GTAACGAA,-0.241
25,AACATGCT,-0.0758

row,Sequence,PBM E-score
1,CCCATACG,-0.0568
2,CGTATGCA,-0.0239
3,CAGCCAGA,-0.106
4,GAAAGCTC,-0.118
5,AAAAGAGT,-0.161
6,AGAGAGGC,-0.218
7,GATGGAAC,-0.0721
8,GCCTAGTA,-0.0319
9,CATTATAA,0.0319
10,AGAGTTAC,-0.312
11,AATGTTTG,-0.0712
12,AAGCATAG,-0.309
13,ACAGTTGG,-0.245
14,GACTGAGC,-0.313
15,CATCATAC,-0.0798
16,ATTATCGA,-0.0673
17,GGGGTCGA,0.114
18,ATATCGAG,0.163
19,ACGAAGCA,-0.243
20,CCCTCCTA,-0.0102
21,AATGCTCT,-0.23
22,GCAAATAC,-0.0284
23,CGTCCGGC,0.41
24,AAACCGGT,0.32
25,CCGGTTCA,0.267

row,Sequence,PBM E-score
1,GCGGTCCA,0.0745
2,GAGGTCAA,-0.0531
3,GAAGAGGC,0.0554
4,ATCCAACC,0.0312
5,AGCGTAGG,-0.122
6,GCTGAGAC,-0.0677
7,CGAGCTAA,0.237
8,AGGCCTAT,-0.286
9,GCTAATGA,-0.088
10,GATGCAAA,-0.165
11,GGCGTGAC,-0.0962
12,GATGCCGA,0.224
13,GCTGGAGA,-0.133
14,AACATCCT,-0.172
15,AGACGGCT,-0.00912
16,GCCGGGTA,0.252
17,ACACTTGC,-0.111
18,GTATAACA,-0.029
19,CTTGATCC,-0.0265
20,AAATGGTA,-0.136
21,AAAATGCC,-0.0134
22,CCTTAGAA,-0.0957
